Reference: the supplement of paper PMC8728848
Some of the results follow.

Experiments:
Assay in all cases: glycan array binding signal (z-score within array); higher = stronger binding
Conditions in all cases: glycan notation: IUPAC condensed, linker removed
[1] = target: Fuc(a1-2)Gal
How it was run: (§1)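 Glycan array binding is given as a within-array Z-score, which can be read as non-binding when negative. The arrays, 3228 of them, came from the Consortium for Functional Glycomics database and were retained only where the protein sequence was available. Z-scores were averaged across arrays of the same protein sequence at different concentrations or buffers and across linkers.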

[2] = target: Fuc(a1-2)Gal(b1-3)GalNAc
How it was run: as §1

[3] = target: Fuc(a1-2)Gal(b1-3)GalNAc(b1-3)Gal
How it was run: as §1

[4] = target: Fuc(a1-2)Gal(b1-3)GalNAc(b1-3)Gal(a1-4)Gal(b1-4)Glc
How it was run: as §1

[5] = target: Fuc(a1-2)Gal(b1-3)GalNAc(b1-4)[Neu5Ac(a2-3)]Gal(b1-4)Glc
How it was run: as §1

[6] = target: Fuc(a1-2)Gal(b1-3)GlcNAc
How it was run: as §1

[7] = target: Fuc(a1-2)Gal(b1-3)GlcNAc(b1-3)Gal(b1-4)Glc
How it was run: as §1

[8] = target: Fuc(a1-2)Gal(b1-3)[Fuc(a1-4)]GlcNAc
How it was run: as §1

[9] = target: Fuc(a1-2)Gal(b1-4)Glc
How it was run: as §1

[10] = target: Fuc(a1-2)Gal(b1-4)Glc6S
How it was run: as §1

[11] = target: Fuc(a1-2)Gal(b1-4)GlcNAc
How it was run: as §1

[12] = target: Fuc(a1-2)Gal(b1-4)GlcNAc(b1-3)Gal(b1-4)GlcNAc
How it was run: as §1

[13] = target: Fuc(a1-2)Gal(b1-4)GlcNAc(b1-3)Gal(b1-4)GlcNAc(b1-3)Gal(b1-4)GlcNAc
How it was run: as §1

[14] = target: Fuc(a1-2)Gal(b1-4)GlcNAc6S
How it was run: as §1

[15] = target: Fuc(a1-2)Gal(b1-4)[Fuc(a1-3)]GlcNAc
How it was run: as §1

[16] = target: Fuc(a1-2)Gal(b1-4)[Fuc(a1-3)]GlcNAc(b1-3)Gal(b1-4)[Fuc(a1-3)]GlcNAc
How it was run: as §1

[17] = target: Fuc(a1-2)Gal(b1-4)[Fuc(a1-3)]GlcNAc(b1-3)Gal(b1-4)[Fuc(a1-3)]GlcNAc(b1-3)Gal(b1-4)[Fuc(a1-3)]GlcNAc
How it was run: as §1

[18] = target: Fuc(a1-2)Gal6S(b1-4)Glc
How it was run: as §1

[19] = target: Fuc(a1-2)Gal6S(b1-4)Glc6S
How it was run: as §1

[20] = target: Fuc(a1-2)Gal6S(b1-4)GlcNAc
How it was run: as §1

[21] = target: Fuc(a1-2)[Gal(a1-3)]Gal
How it was run: as §1

[22] = target: Fuc(a1-2)[Gal(a1-3)]Gal(b1-3)GlcNAc
How it was run: as §1

[23] = target: Fuc(a1-2)[Gal(a1-3)]Gal(b1-4)Glc
How it was run: as §1

[24] = target: Fuc(a1-2)[Gal(a1-3)]Gal(b1-4)GlcNAc
How it was run: as §1

[25] = target: Fuc(a1-2)[Gal(a1-3)]Gal(b1-4)[Fuc(a1-3)]GlcNAc
How it was run: as §1

[26] = target: Fuc(a1-2)[Gal(a1-4)]Gal(b1-4)GlcNAc
How it was run: as §1

[27] = target: Fuc(a1-2)[GalNAc(a1-3)]Gal
How it was run: as §1

[28] = target: Fuc(a1-2)[GalNAc(a1-3)]Gal(b1-3)GlcNAc
How it was run: as §1

[29] = target: Fuc(a1-2)[GalNAc(a1-3)]Gal(b1-4)Glc
How it was run: as §1

[30] = target: Fuc(a1-2)[GalNAc(a1-3)]Gal(b1-4)GlcNAc
How it was run: as §1

[31] = target: Fuc(a1-2)[GalNAc(a1-3)]Gal(b1-4)[Fuc(a1-3)]GlcNAc
How it was run: as §1

[32] = target: Fuc(a1-2)[GalNAc(a1-4)]Gal(b1-4)GlcNAc
How it was run: as §1

[33] = target: Fuc(a1-2)[GalNAc(b1-3)]Gal
How it was run: as §1

[34] = target: Fuc(a1-3)GlcNAc
How it was run: as §1

[35] = target: Fuc(a1-3)[Gal(b1-4)]Glc6S
How it was run: as §1

[36] = target: Fuc(a1-3)[Gal(b1-4)]GlcNAc
How it was run: as §1

[37] = target: Fuc(a1-3)[Gal(b1-4)]GlcNAc(b1-2)Man(a1-3)[Fuc(a1-3)[Gal(b1-4)]GlcNAc(b1-2)Man(a1-6)]Man(b1-4)GlcNAc(b1-4)GlcNAc
How it was run: as §1

[38] = target: Fuc(a1-3)[Gal(b1-4)]GlcNAc(b1-2)Man(a1-6)[Gal(b1-4)GlcNAc(b1-2)Man(a1-3)]Man(b1-4)GlcNAc(b1-4)GlcNAc
How it was run: as §1

[39] = target: Fuc(a1-3)[Gal(b1-4)]GlcNAc(b1-3)Gal(b1-3)[Fuc(a1-4)]GlcNAc
How it was run: as §1

[40] = target: Fuc(a1-3)[Gal(b1-4)]GlcNAc(b1-4)Gal(b1-4)[Fuc(a1-3)]GlcNAc
How it was run: as §1

[41] = target: Fuc(a1-3)[Gal(b1-4)]GlcNAc(b1-4)Gal(b1-4)[Fuc(a1-3)]GlcNAc(b1-4)Gal(b1-4)[Fuc(a1-3)]GlcNAc
How it was run: as §1

[42] = target: Fuc(a1-3)[Gal(b1-4)]GlcNAc6S
How it was run: as §1

[43] = target: Fuc(a1-3)[Gal3S(b1-4)]Glc6S
How it was run: as §1

[44] = target: Fuc(a1-3)[Gal3S(b1-4)]GlcNAc
How it was run: as §1

[45] = target: Fuc(a1-3)[Gal3S(b1-4)]GlcNAc6S
How it was run: as §1

B1: MCI4 (Toxoplasma gondii), Q9XZH7 (protein)
chain: MRASLPVHLVVCTQLSAVWFGVAKAHGGHRLEPHVPGFLQGFTDITPAGDDVSANVTSSEPAKLDLSCVHSDNKGSRAPTIGEPVPDVSLEQCAAQCKAVDGCTHFTYNDDSKMCHVKEGKPDLYDLTGGKTASRSCDRSCFEQHVSYEGAPDVMTAMVTSQSADCQAACAADPSCEIFTYNEHDQKCTFKGRGFSAFKERGVLGVTSGPKQFCDEGGKLTQEEMEDQISGCIQLSDVGSMTADLEEPMEADSVGACMERCRCDGRCTHFTFNDNTRMCYLKGDKMQLYSSPGDRTGPKSCDSSCFSNGVSYVDDPATDVETVFEISHPIYCQVICAANPLCTVFQWYASEAKCVVKRKGFYKHRKTGVTGVTVGPREFCDFGGSIRDREEADAVGSDDGLNAEATMANSPDFHDEVECVHTGNIGSKAQTIGEVKRASSLSECRARCQAEKECSHYTYNVKSGLCYPKRGKPQFYKYLGDMTGSRTCDTSCLRRGVDYSQGPEVGKPWYSTLPTDCQVACDAEDACLVFTWDSATSRCYLIGSGFSAHRRNDVDGVVSGPYTFCDNGENLQVLEAKDTE
glycan array binding signal (z-score) [1]: -0.217
glycan array binding signal (z-score) [2]: -0.219
glycan array binding signal (z-score) [3]: -0.203
glycan array binding signal (z-score) [4]: -0.22
glycan array binding signal (z-score) [5]: -0.197
glycan array binding signal (z-score) [6]: -0.202
glycan array binding signal (z-score) [7]: -0.197
glycan array binding signal (z-score) [8]: -0.212
glycan array binding signal (z-score) [9]: -0.217
glycan array binding signal (z-score) [10]: -0.201
glycan array binding signal (z-score) [11]: -0.204
glycan array binding signal (z-score) [12]: -0.214
glycan array binding signal (z-score) [13]: -0.219
glycan array binding signal (z-score) [14]: -0.213
glycan array binding signal (z-score) [15]: -0.208
glycan array binding signal (z-score) [16]: -0.21
glycan array binding signal (z-score) [17]: -0.227
glycan array binding signal (z-score) [18]: -0.184
glycan array binding signal (z-score) [19]: -0.192
glycan array binding signal (z-score) [20]: -0.208
glycan array binding signal (z-score) [21]: -0.178
glycan array binding signal (z-score) [22]: -0.202
glycan array binding signal (z-score) [23]: -0.206
glycan array binding signal (z-score) [24]: -0.195
glycan array binding signal (z-score) [25]: -0.204
glycan array binding signal (z-score) [26]: -0.203
glycan array binding signal (z-score) [27]: -0.186
glycan array binding signal (z-score) [28]: -0.2
glycan array binding signal (z-score) [29]: -0.22
glycan array binding signal (z-score) [30]: -0.21
glycan array binding signal (z-score) [31]: -0.192
glycan array binding signal (z-score) [32]: -0.186
glycan array binding signal (z-score) [33]: -0.207
glycan array binding signal (z-score) [34]: -0.185
glycan array binding signal (z-score) [35]: -0.226
glycan array binding signal (z-score) [36]: -0.186
glycan array binding signal (z-score) [37]: -0.214
glycan array binding signal (z-score) [38]: -0.201
glycan array binding signal (z-score) [39]: -0.192
glycan array binding signal (z-score) [40]: -0.22
glycan array binding signal (z-score) [41]: -0.169
glycan array binding signal (z-score) [42]: -0.219
glycan array binding signal (z-score) [43]: -0.219
glycan array binding signal (z-score) [44]: -0.208
glycan array binding signal (z-score) [45]: -0.225
